Results as given in PubChem BioAssay AID1460 (National Center for Advancing Translational Sciences (NCATS), 2008).
Screen size: about 270,000 compounds; about 5,800 (2.1%) were called active. About 16% were inconclusive and are not listed. Calls come from the whole dose curve; as a rule, active = well fitted inhibition curve with a large enough effect; inconclusive = small, poorly fitted or top-dose-only effect; inactive = flat fitted curve, though single readings scatter. Only a part is listed here, and it is no random draw.

These molecules were tested against Microtubule-associated protein tau (Homo sapiens) (UniProt P10636) (assay: qHTS for Inhibitors of Tau Fibril Formation, Thioflavin T Binding). Conditions: recombinant tau K18 P301L, heparin-induced fibrillization, ThT fluorescence; series mostly up to 57.4 µM; activity, negative = inhibition: at the top concentration.
Chain of UniProt P10636 (P10636 whole entry, looked up): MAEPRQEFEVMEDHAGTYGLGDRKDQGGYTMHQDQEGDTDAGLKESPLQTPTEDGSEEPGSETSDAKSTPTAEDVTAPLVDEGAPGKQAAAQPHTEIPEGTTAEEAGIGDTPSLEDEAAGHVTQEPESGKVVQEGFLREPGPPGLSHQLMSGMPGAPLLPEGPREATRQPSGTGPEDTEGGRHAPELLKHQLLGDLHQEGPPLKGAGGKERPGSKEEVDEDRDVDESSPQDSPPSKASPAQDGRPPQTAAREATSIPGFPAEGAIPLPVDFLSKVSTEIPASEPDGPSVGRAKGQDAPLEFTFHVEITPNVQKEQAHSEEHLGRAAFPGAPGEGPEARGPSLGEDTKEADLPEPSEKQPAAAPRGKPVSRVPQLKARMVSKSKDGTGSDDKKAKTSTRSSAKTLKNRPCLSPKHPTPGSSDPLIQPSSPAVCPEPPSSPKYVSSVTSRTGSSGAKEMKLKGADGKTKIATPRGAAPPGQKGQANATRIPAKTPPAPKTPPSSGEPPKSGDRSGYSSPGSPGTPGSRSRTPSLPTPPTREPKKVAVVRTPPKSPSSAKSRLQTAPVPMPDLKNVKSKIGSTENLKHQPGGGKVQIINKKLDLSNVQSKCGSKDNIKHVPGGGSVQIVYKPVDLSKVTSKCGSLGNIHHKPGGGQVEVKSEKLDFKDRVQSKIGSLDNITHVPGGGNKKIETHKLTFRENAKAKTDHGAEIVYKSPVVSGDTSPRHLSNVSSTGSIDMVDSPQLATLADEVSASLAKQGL
Summary of the method: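 ThT emission at 510 nm, taken 1 hr after adding 30 uM dye, quantifies aggregates formed when 20 uM heparin acts on human tau K18 P301L for 6 hr at 37 C.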
% is set by controls: 0 for no effect and ±100 for the full control effect; potency is the fitted concentration of half-maximal effect.
Note: nearly all actives have a fitted effect of over 55% in size.

Structure (SMILES)	activity, negative = inhibition	Potency
Nc1ccc2c3c(cccc13)C(=O)NC2=O	inactive: -2.84%	
O=C(NCc1nc2ccccc2[nH]1)C1=C[C@@H](c2ccc3c(c2)OCO3)C[C@@H](OCc2ccc(CO)cc2)O1	inactive: -0.477%	
COC(=O)CCCC1=CC2=CC(=O)C(C)(OC(=O)c3cccs3)C(=O)C2=CN1CC(C)C (stereo unspecified)	inactive: -12.7% [at 11.5 µM]	
[2H]c1c([2H])c([2H])c(-c2nc(N3CCCCCC3)sc2C(=O)c2ccccc2)c([2H])c1[2H]	inactive: -19.9%	
CCCN1C(=O)C(Cc2nc3ccccc3c(=O)n2-c2ccccc2)c2cc(C)ccc21 (stereo unspecified)	inactive: -18%	
O=C(CSc1nc2ccc(S(=O)(=O)N3CCOCC3)cc2[nH]1)N1CCOCC1		active: 28.2 µM
Cc1noc(NS(=O)(=O)c2ccc(N/C=C\C(=O)c3ccc(F)cc3)cc2)c1C	inactive: 8.65%	
COc1cc(C2CC(=O)Oc3c2c(=O)n(C)c2ccccc32)ccc1O (stereo unspecified)	inactive: -14.3%	
COc1ccc(C[C@H]2CN3C(=NC[C@@H]3Cc3ccccc3)N2CCNC(=O)CCC2CCCCC2)cc1	inactive: -17.5%	
O=C(N/N=C/c1cccc([N+](=O)[O-])c1O)c1cccs1		active: 5.01 µM
O=C(O)CCn1cc(/C=C/C(=O)c2ccc(Cl)cc2)c(-c2cccc(Br)c2)n1	inactive: -5.32%	
CCCC1=C/C(=C/c2ccc(-c3ccccc3OC)o2)C(=O)O1		active: 12.6 µM
CCCCC1=CC2=CC(=O)C(C)(OC(=O)C3CCCC3)C(=O)C2=CO1 (stereo unspecified)	inactive: -6.52%	
CC(NC(=O)/C(=C/c1cccc([N+](=O)[O-])c1)NC(=O)c1ccco1)C(=O)O (stereo unspecified)	inactive: 2.33%	
CCCCC(C=O)NC(=O)C(CC(C)C)NC(=O)OCc1ccccc1 (stereo unspecified)	inactive: -6.11%	
CCCOc1ccccc1-c1nc2n[nH]nc2c(=O)[nH]1		inactive
S=C(Nc1ccccc1)c1ccccn1	inactive: -8.8%	
COc1ccc(CCCc2nnc(SCC(=O)Nc3cc(C)ccc3C)o2)cc1	inactive: -20.5%	
CC1=C(C(=O)O)N2C(=O)[C@@H](NC(=O)C(N)c3ccccc3)[C@H]2SC1 (stereo partly specified)	inactive: -10.4%	
CCCCCCCCCCCCC/C=C/[C@@H](O)[C@@H](N)CO		inactive
Cc1cc(N)c2ccccc2[n+]1CCCCCCCCCC[n+]1c(C)cc(N)c2ccccc21	inactive: -19.4%	
Cn1c(=O)c(=O)n(C)c2cc(S(=O)(=O)N3CCN(c4ccc(F)cc4)CC3)ccc21	inactive: -5.14%	
COC(=O)[C@@H](NC(=O)O[C@@H]1C(=O)c2cc(Br)ccc2O[C@H]1c1cccc(OC)c1)C(C)C	inactive: -13.4%	

Structure (SMILES)	activity, negative = inhibition	Potency
CC(C)NC(=O)/C(C#N)=C\c1ccc(N(C)C)o1	inactive: -11.8%	
COC(=O)CCC(=O)OC1(C)C(=O)C2=COC(c3ccc(OC)cc3)=CC2=C(Br)C1=O (stereo unspecified)		active: 12.6 µM
CC1(C)CC(=O)C([C@H]2C3=C(CC(C)(C)CC3=O)Oc3ccccc32)C(=O)C1	inactive: -10.1%	
COC(=O)[C@H](Cc1ccccc1)NC(=O)O[C@@H]1C(=O)c2cc(OC)ccc2O[C@H]1c1ccc(OC)c(Br)c1	inactive: -10.8%	
CC1(OC(=O)C2CCCC2)C(=O)C=C2C=C3CCCCN3C=C2C1=O (stereo unspecified)	inactive: -5.24% [at 11.5 µM]	
CCCC(=O)OC1CC(C)N(C(=O)c2ccccc2)c2ccc(C)cc21 (stereo unspecified)	inactive: -1.78%	
C[C@@]12CCC3c4ccc(O)cc4CCC3C1CCC2O (stereo partly specified)	inactive: -16.9%	
CCC1=C(OC(=O)N(CC)CC)N2C(=O)OC(=NCCc3c[nH]c4ccccc34)[C@]2(C)[C@H]2C1=CC[C@H]1C(=O)N(C)C(=O)[C@H]12	inactive: -4.19%	
COc1ccc(-c2csc(Nc3ccc(O)cc3)n2)cc1		active: 7.94 µM
Nc1ccc(O)c2c(=O)cc(-c3ccccc3Cl)oc12	inactive: -17.9%	
CCc1cccc(NC(=O)CCNS(=O)(=O)c2cccc3nonc23)c1	inactive: -4.08%	
COc1cc(N=Nc2ccccc2C(=O)O)ccc1O		active: 7.08 µM
O=C(Cn1cc(SCc2cccc(Cl)c2)c2ccccc21)N1CCOCC1	inactive: 6.28%	
COc1cc(O)c(NC(C)=O)c2nonc12		active: 7.94 µM
C=CCN1C=C2C(=O)C(C)(OC(=O)c3ccc(OC)cc3)C(=O)C(c3ccco3)=C2C=C1CCCC (stereo unspecified)	inactive: -0.609% [at 11.5 µM]	
COC(=O)c1ccc2c(c1)C(C)(C)C(/C=C/c1ccc(O)cc1)=[N+]2C		active: 12.6 µM
Cc1ccc(C(C[N+](=O)[O-])c2c(-c3ccccc3O)[nH][nH]c2=O)cc1 (stereo unspecified)		active: 17.8 µM
Cc1ccc(-c2cc(N)n(-c3ccc(C)cc3)n2)cc1	inactive: -12%	
CCCCCCN(C(=O)CCCCCN1C(=O)NC(c2ccc(-c3ccccc3)cc2)C(C(=O)OCc2ccccc2)=C1C)C(C(=O)NCCCC)c1ccccn1 (stereo unspecified)	inactive: -16%	
COCCN=C1OC(=O)N2C(=O)C3=C4[C@@H](C[C@H]5C(=O)N(c6ccccc6)C(=O)[C@H]5[C@H]4[C@@]12Cc1ccccc1)[C@H]1C(=O)N(c2ccccc2)C(=O)[C@H]1[C@H]3C	inactive: -6.93%	
COc1cc(CNc2ccc3[nH]c(=O)[nH]c3c2)cc(Cl)c1OCC(=O)NC(C)(C)C		active: 11.2 µM
Cc1ccc(S(=O)(=O)NC(=O)NN2CCCCCC2)cc1		inactive
CC(C)c1ccc2c(c1)CC[C@@H]1[C@@](C)(CN)CCC[C@]21C	inactive: -4.78%	

Structure (SMILES)	activity, negative = inhibition	Potency
Fc1ccc(N=C2NN=C(c3cc(F)ccc3F)CS2)cc1		active: 12.6 µM
CC[N+](CC)(CC)CC(=O)Nc1c(C)cccc1C		inactive
COc1ccc(C(=O)c2coc3c2C(=O)C(=O)c2ccccc2-3)cc1		active: 2.82 µM
O=c1[nH]c(=O)n([C@H]2C[C@H](O)[C@@H](CO)O2)cc1Br	inactive: -4.78%	
Cc1cc(Br)cc2c1N(Cc1ccccc1OC(C)C)C(=O)C2=O		active: 25.1 µM
Cc1ccccc1NC(=O)/C(C#N)=C\c1ccsc1	inactive: -15.5%	
OC(CN1CCN(c2cccc(Cl)c2)CC1)C(c1ccccc1)c1ccccc1 (stereo unspecified)		inactive
CC1=NN(C(N)=S)C(=O)C1N=Nc1ccc(O)cc1 (stereo unspecified)		active: 12.6 µM
COc1ccc(N2CCN(C(=O)c3ccc4c(=O)n(CCc5ccc(OC)c(OC)c5)c(=O)[nH]c4c3)CC2)cc1	inactive: -10.8%	
COc1ccccc1CNC(=O)CSc1cc(=O)n(C)c2ccccc12	inactive: -0.873%	
Cc1ccc(C(=O)N/C(=C/C=C\c2ccccc2)C(=O)NCc2ccco2)cc1	inactive: 1.97%	
COC(=O)c1ccc(C23CC4(C2)[C@H](CN(Cc2ccc(C(F)(F)F)cc2)[C@@H]4c2ccccc2)C3c2ccc(C(F)(F)F)cc2)cc1 (stereo partly specified)	inactive: 3.12%	
CC(/C=C/C(=O)NO)=C\[C@@H](C)C(=O)c1ccc(N(C)C)cc1	inactive: -19.8%	
Cc1ccccc1C(=O)N1CCN(c2ccc(NC(=O)c3ccc4c(c3)OCO4)cc2)CC1		active: 12.6 µM
NS(=O)(=O)c1ccc(Nc2nc3ccccc3nc2NS(=O)(=O)c2cccc([N+](=O)[O-])c2)cc1		active: 11.2 µM
O=C(NCCc1ccccc1)c1ccc2nc(-c3ccco3)c(-c3ccco3)nc2c1		active: 7.08 µM
CC(=O)c1cc2c(cc1N/C(=N/S(=O)(=O)c1ccc(C)cc1)c1ccc(Cl)cc1)OCO2	inactive: 19.7%	
COC(=O)CN1C(=O)C2(C(C#N)=C(N)Oc3c2c(C)nn3-c2ccccc2)c2ccccc21 (stereo unspecified)		active: 28.2 µM
CC1(C)CC(=O)C2=C(C1)N(c1cccnc1)C(N)=C(C#N)C2c1cccs1 (stereo unspecified)		active: 20 µM
O=c1[nH][nH]c(-c2ccccc2O)c1C(C[N+](=O)[O-])c1cccc(Cl)c1 (stereo unspecified)		active: 25.1 µM
CC1(C)C=Cc2cc3ccc(=O)oc3cc2O1	inactive: -12.9%	
O=C1CC(c2ccc(O)c(O)c2)Oc2c1ccc(O)c2O (stereo unspecified)		active: 15.8 µM
CN(C)CCCN1c2ccccc2Sc2ccc(Cl)cc21	inactive: -18.4%	

Structure (SMILES)	activity, negative = inhibition	Potency
Cc1nn(-c2ccccc2)c(N2CCCC2)c1/C=N/Nc1ccc(S(N)(=O)=O)cc1[N+](=O)[O-]		active: 5.01 µM
Cc1cccc(C)c1OCC(=O)Nc1ncn[nH]1	inactive: -0.0429%	
O=C(O)c1ccccc1Nc1ccccc1	inactive: -10.5%	
Cc1sc(N2C(=O)C3C(C2=O)[C@H]2C=C[C@@H]3C2)c(C#N)c1C (stereo partly specified)	inactive: -16.8%	
O=C(Nc1ccc(F)cc1)N1CCN(c2ccc3nnc(-c4ccc(F)cc4)n3n2)CC1	inactive: -25.4%	
CCCCCCCCCCCCCCCC(=O)OC(CC(=O)O)C[N+](C)(C)C (stereo unspecified)	inactive: -19.6%	
O=C(/C=C/c1ccco1)Oc1cccc2cccnc12	inactive: -19.2%	
COCOc1ccc(OC)cc1C(=O)/C=C/c1ccc(OC)c(Br)c1	inactive: -6.82%	
CC1(C)C(=O)NC2=C1C(=O)C(=O)c1ccccc12		active: 17.8 µM
CCCC(=O)Oc1c(Sc2ccc(C)cc2)c(C)nn1-c1ccccc1		active: 25.1 µM
CN1C(=O)CS/C1=N\NC(=O)COc1cccc2cccnc12		active: 10 µM
Oc1ccccc1CNc1cccc2cccnc12		active: 6.31 µM
N#C/C(=C/c1ccco1)c1nc2ccccc2s1	inactive: 8.87%	
Cc1cc(Cl)cc2c1NC(=O)[C@]21[C@@H]2C(=O)N(Cc3ccccc3)C(=O)[C@@H]2[C@@H]2CCCN21	inactive: -16.5%	
O=C(NCc1ccccc1)[C@@H]1C[C@H]1[C@@H](NP(=O)(c1ccccc1)c1ccccc1)c1ccccc1		inactive
CCC1=C(OC(=O)N(CC)CC)N2C(=O)OC(=NCCc3c[nH]c4ccccc34)[C@]2(Cc2ccccc2)[C@H]2C1=CC[C@H]1C(=O)N(CC)C(=O)[C@H]12	inactive: -0.742%	
S=C(Nc1ccc2cn[nH]c2c1)Nc1ccccc1Cl		active: 14.1 µM
COc1ccc(/C=C/C2=C[C@]3(C)C[C@]2(C)[C@H](c2ccc(OC)cc2)CC3=O)cc1	inactive: 5.08%	
CCOC(=O)c1cc(OC(=O)c2ccccc2OC)n(-c2ccccc2)n1	inactive: -13.1%	
NC1=NC[C@@H](Cc2ccc(O)cc2)N1CCc1cccc(F)c1	inactive: -6.21%	
COc1ccccc1/C=C/C=N/n1c(C2CCCCC2)n[nH]c1=S	inactive: -12.4%	
Cc1ccc(OCCNc2cc(N3CCN(CCO)CC3)ccc2[N+](=O)[O-])cc1C		active: 15.8 µM
